# Source: paper PMC4336329 (PLoS ONE, 2015)
# Out of some 310,000 compounds screened, about 14,000 (4.5%) showed an effect of 50% or more. Effects have a minus sign here. Some of the results follow.
# Target: human ether-à-go-go-related gene (hERG) potassium channel (human, UniProt Q12809)
# Test: primary screen, population patch clamp on CHO cells stably expressing hERG
# 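Note: peak tail current of the secondary pulse compared with the same well before compound.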
# human ether-à-go-go-related gene (hERG) potassium channel, sequence (Q12809 whole entry, looked up): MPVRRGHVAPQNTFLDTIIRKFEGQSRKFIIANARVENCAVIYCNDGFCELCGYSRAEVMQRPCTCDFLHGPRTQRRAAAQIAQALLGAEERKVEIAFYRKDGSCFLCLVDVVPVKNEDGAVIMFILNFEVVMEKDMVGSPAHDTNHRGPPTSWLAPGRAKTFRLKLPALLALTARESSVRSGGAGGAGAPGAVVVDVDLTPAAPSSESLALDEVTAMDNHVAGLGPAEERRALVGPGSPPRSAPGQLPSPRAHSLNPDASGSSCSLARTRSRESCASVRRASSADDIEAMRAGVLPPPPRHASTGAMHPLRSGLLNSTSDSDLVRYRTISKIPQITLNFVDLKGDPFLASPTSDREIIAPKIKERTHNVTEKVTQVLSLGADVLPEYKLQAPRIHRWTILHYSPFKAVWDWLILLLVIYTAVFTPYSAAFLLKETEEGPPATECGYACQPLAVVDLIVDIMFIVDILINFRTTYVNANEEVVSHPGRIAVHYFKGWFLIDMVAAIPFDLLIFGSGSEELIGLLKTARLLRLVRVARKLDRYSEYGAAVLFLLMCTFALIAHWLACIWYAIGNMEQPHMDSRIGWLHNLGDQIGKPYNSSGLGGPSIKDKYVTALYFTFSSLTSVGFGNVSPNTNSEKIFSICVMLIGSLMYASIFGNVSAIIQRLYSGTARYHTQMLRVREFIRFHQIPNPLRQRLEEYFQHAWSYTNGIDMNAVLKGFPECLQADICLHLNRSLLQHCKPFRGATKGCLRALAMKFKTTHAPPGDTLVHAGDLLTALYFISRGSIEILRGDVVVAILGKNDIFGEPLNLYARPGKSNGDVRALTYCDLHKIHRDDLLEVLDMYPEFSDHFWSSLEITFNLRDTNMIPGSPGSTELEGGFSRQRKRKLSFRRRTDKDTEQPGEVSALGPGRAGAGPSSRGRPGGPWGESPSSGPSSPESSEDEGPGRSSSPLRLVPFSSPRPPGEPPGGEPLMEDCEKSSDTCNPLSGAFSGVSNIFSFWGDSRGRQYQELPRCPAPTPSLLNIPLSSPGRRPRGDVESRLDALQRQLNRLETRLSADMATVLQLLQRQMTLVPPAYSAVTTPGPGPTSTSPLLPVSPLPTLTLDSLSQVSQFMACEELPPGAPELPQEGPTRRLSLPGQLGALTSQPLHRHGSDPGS
row,SMILES,"hERG current change (%, negative = inhibition) at 10uM"
1,COc1ccc(CN2CCN(C(=O)Cc3ccccc3)CC2)cc1Br.O=C(O)C(=O)O,-1.42%
2,Nc1ccc(Oc2ccc([N+](=O)[O-])cc2[N+](=O)[O-])cc1,-37.7%
3,Cc1cc(C(=O)COc2cccc(-n3cnnn3)c2)c(C)n1-c1ccccc1,-8.98%
4,CCOc1ccccc1NC(=O)CCCn1cc([N+](=O)[O-])cn1,-13.8%
5,COc1ccc(C(=O)NCCCc2ccccc2)cc1OC,8.25%
6,Cl.OC(CN1CCOCC1)Cn1c2c(c3ccccc31)CCCC2 (centres unmarked),-3.25%
7,CCN(Cc1ccccc1)C(=O)C(=O)c1cn(CC(=O)N2CCCC2)c2ccccc12,7.16%
8,CC1=CN2C(=NC(=O)CC2(C)C(=O)N(CC(=O)NC2CCCC2)Cc2ccc(Cl)cc2)C=C1 (centres unmarked),6.53%
9,NC(=O)[C@H]1CC2(CC(c3cccc(NC(=O)COc4ccc(Cl)cc4)c3)=NO2)CN1C(=O)CC(c1ccccc1)c1ccccc1 (some centres unmarked),4.79%
10,COc1ccccc1/C=C/CN1CCC(Oc2ccc(C(=O)N3CCCCC3)cc2)CC1,-44.6%
11,O=c1c2cccnc2n(-c2ccccc2)n1Cc1ccc(Cl)cc1,12.7%
12,CCc1ccc(C(C)NC(=O)c2ccc3c(c2)OCO3)cc1 (centres unmarked),9.01%
13,CCN1CCN(c2ccc(NC(=O)c3ccc(Cl)c(N4CCCC4=O)c3)cc2)CC1,13.1%
14,CCCN(CC(=O)Nc1ccc(F)c(F)c1F)C(=O)c1cc([N+](=O)[O-])ccc1N1CCOCC1,-67.1%
15,Cc1ccc(S(=O)(=O)C(C)C(=O)c2ccc3c(c2)OCCO3)cc1 (centres unmarked),-28.9%
16,CCOc1ccccc1N(C)C(=O)c1sc2ncn(CC(=O)N3CCCCC3C)c(=O)c2c1C (centres unmarked),6.44%
17,Cn1c(Cl)c(/C=N/OC(=O)C(C)(C)C)c2ccccc21,9.27%
18,O=C(CN1C(=O)NC(Cc2c[nH]c3ccccc23)C1=O)Nc1ccc(F)c(F)c1F (centres unmarked),-5.36%
19,Nc1ccc(C#Cc2ccc3sc4ccccc4c(=O)c3c2)cc1,7.9%
20,O=C(Nc1ccncc1)Nc1cccc(F)c1,9.86%
21,COc1cc(C(=O)O)c2c(c1C)OC(=O)c1c(C)cc(O)c(C=O)c1O2,21.3%
22,O=C(/C=C/c1ccoc1)c1ccccc1O,-30.9%
23,Cc1ccc2ccc3cccnc3c2n1,10.4%
